According to US7592316B2, “Peptides as NS3-serine protease inhibitors of hepatitis C virus” (Schering Corporation, priority 2000, dated 2009):

target: HCV NS3/NS4A protease (strain 1a) (Hepatitis C virus genotype 1a, UniProt P27958); assay: biochemical; conditions: Compounds prepared by Solid Phase Synthesis, Table 3; read-out: Ki* CLASS

SMILES	pKi
CCCCC(NC(=O)CNC(=O)C(=O)C(CCC)NC(=O)[C@@H]1C[C@@H](OCc2ccccc2)CN1C(=O)C(NC(=O)CC(C)c1ccccc1)C1CCCCC1)C(N)=O (stereo partly drawn) (X60-[ξChg][Hyp](Bn)[X2]G[ξNle]-NH2)	< 6.00
CCCCC(NC(=O)CNC(=O)C(=O)C(CCC)NC(=O)[C@@H]1C[C@@H](OCC(=O)OC(C)(C)C)CN1C(=O)C(NC(=O)Cc1cccc(Cl)c1)C1CCCCC1)C(N)=O (stereo partly drawn) ({Phenylacetyl(3-Cl)}-[ξChg][Hyp](CH2CO2tBu)[X2]G[ξNle]-NH2)	< 6.00
CCCC(NC(=O)[C@@H]1C[C@@H](OC(C)(C)C)CN1C(=O)[C@@H](NC(=O)c1ccccc1C(=O)O)C1CCCCC1)C(=O)C(=O)NCC(=O)NC(C(N)=O)c1cccc(C)c1 (stereo partly drawn)	6.00 to 7.00
CCCC(NC(=O)[C@@H]1C[C@@H](OCc2ccccc2)CN1C(=O)C(NC(=O)c1ccccc1[N+](=O)[O-])C1CCCCC1)C(=O)C(=O)NCC(=O)NC(C(N)=O)c1ccccc1 (stereo partly drawn) ({Benzoyl(2-NO2)}-[ξChg][Hyp](Bn)[X2]G[ξPhg]-NH2)	7.00 to 9.00
CCCCC(NC(=O)[C@@H]1C[C@@H](OC(C)(C)C)CN1C(=O)[C@@H](NS(=O)(=O)c1ccc(F)cc1)C(C)C)C(=O)C(=O)NCC(=O)N[C@H](C(N)=O)c1ccccc1 (stereo partly drawn) ({Benzenesulfonyl(4-F)}-V[Hyp](tBu)[X4]G[Phg]-NH2)	< 6.00
CCCC(NC(=O)C1Cc2ccccc2CN1C(=O)C(NC(=O)OCC(C)C)C1CCCCC1)C(=O)C(=O)NCC(=O)NC(C(N)=O)c1ccccc1 (stereo not drawn) (Isobutyloxycarbonyl-[Chg][Tic][X2]G[Phg]-NH2; configuration not given here)	6.00 to 7.00

same assay, conditions: HCV protease continuous assay results, Table 1; read-out: Ki* Range

SMILES	pKi
CCC[C@@H](NC(=O)[C@@H]1C[C@@H](C)CN1C(=O)[C@@H](NC(=O)OCC(C)C)C(C)(C)C)C(=O)C(=O)NCC(=O)NC(C(=O)N(C)C)c1ccccc1 (stereo partly drawn) [Example 261] (Isobutyloxycarbonyl-[Tle][Pro(4R-Me)][X19]G[ξPhg]-NMe2)	< 6.00
CCCC(NC(=O)[C@@H]1CC2(CN1C(=O)[C@@H](NC(=O)OCC(C)C)[C@@H](C)OCc1ccccc1)SCCCS2)C(=O)C(=O)NCC(=O)N[C@H](C(=O)O)c1ccccc1 (stereo partly drawn) [Example 99] (Isobutyloxycarbonyl-T(Bn)[Pro(4,4-S(CH2)3S)][X2]G[Phg]-OH)	6.00 to 7.00
C=CCCC(NC(=O)[C@@H]1[C@@H]2[C@H](CN1C(=O)[C@@H](NC(=O)OC(C)(C)C)C(C)(C)C)C2(C)C)C(=O)C(=O)NCC=C (stereo partly drawn) [Example 347]	6.00 to 7.00
CCCC(NC(=O)[C@@H]1C[C@@H](c2ccccc2)CN1C(=O)[C@@H](NC(=O)OC(C)(C)C)C1CCCCC1)C(=O)C(=O)NCC(=O)NC(C(=O)OCc1ccccc1)C1CCCCC1 (stereo partly drawn) [Example 79] (Boc-[Chg][Pro(trans-4-Ph)][X2]G[ξChg]-OBn)	< 6.00

same assay, conditions: Table 4; HCV NS3/NS4A protease, spectrophotometric assay, 30° C., pH 6.5; read-out: Ki* Range

pKi	SMILES
6.00 to 7.00	CCCC(NC(=O)C1C2CCC(CC2)N1C(=O)[C@@H](NC(=O)OCC(C)C)C1CCCCC1)C(=O)C(=O)NCC(=O)N[C@H](C(N)=O)c1ccccc1 (stereo partly drawn)

same assay, conditions: Table 5; HCV NS3/NS4A protease, spectrophotometric assay, 30° C., pH 6.5; read-out: Ki* Range

pKi	SMILES
6.00 to 7.00	CCCC(NC(=O)[C@@H]1[C@@H]2[C@H](CN1C(=O)[C@@H](NC(=O)OC(C)(C)C)C(C)(C)C)C2(C)C)C(=O)C(=O)NCCC(=O)Nc1ccccc1 (stereo partly drawn)
< 6.00	CCCC(NC(=O)[C@@H]1C2CCC(C2)N1C(=O)[C@@H](NC(=O)OC(C)(C)C)C(C)(C)C)C(=O)C(N)=O (stereo partly drawn)
6.00 to 7.00	CCCC(NC(=O)[C@@H]1[C@@H]2[C@H](CN1C(=O)[C@@H](NC(=O)[C@H](CC(C)C)NS(C)(=O)=O)C(C)(C)C)C2(C)C)C(=O)C(=O)O (stereo partly drawn)

same assay, conditions: Table 6; HCV NS3/NS4A protease, 30° C., pH 6.5; read-out: Ki*

pKi	SMILES
7.00 to 9.00	CC(C)(C)[C@H](NC(=O)NC12CC3CC(CC(C3)C1)C2)C(=O)N1C[C@H]2[C@@H]([C@H]1C(=O)NC(CC1CC1)C(=O)C(N)=O)C2(Cl)Cl (stereo partly drawn)
7.00 to 9.00	CC(C)(CF)NC(=O)N[C@H](C(=O)N1C[C@H]2[C@@H]([C@H]1C(=O)NC(CC1CC1)C(=O)C(N)=O)C2(C)C)C1CCCCC1 (stereo partly drawn)
6.00 to 7.00	C=CCCNC(=O)C(=O)C(CCCC)NC(=O)[C@@H]1[C@@H]2[C@H](CN1C(=O)[C@@H](NC(=O)NC(C)(C)C)C(C)(C)C)C2(C)C (stereo partly drawn)
7.00 to 9.00	C=CCNC(=O)C(=O)C(CC(F)(F)F)NC(=O)[C@@H]1[C@@H]2[C@H](CN1C(=O)[C@@H](NC(=O)NC(C)(C)C)C1CCCCC1)C2(C)C (stereo partly drawn)

pKi: −log10 of the molar value. *1 amine or outer side, *2 acyl side, *3 side chain or, on linkers, in order; H or OH if unused. Where a SMILES comes first, the peptide text is derived from it. [ ]: non-standard residue; d: D form. The star is where a group is joined. ξ: configuration not given here. Pro(trans-4-Ph) = O=C(O)[C@@H]1C[C@@H](c2ccccc2)CN1; Pro(4,4-S(CH2)3S) = O=C(O)[C@@H]1CC2(CN1)SCCCS2; Benzenesulfonyl(4-F) = O=S(=O)(c1ccc(F)cc1)*; Benzoyl(2-NO2) = O=C(c1ccccc1[N+](=O)[O-])*; Phenylacetyl(3-Cl) = O=C(Cc1cccc(Cl)c1)*; X19 = CCC[C@@H](N[*:1])C(=O)C(=O)[*:2]; Pro(4R-Me) = C[C@H]1CN[C@H](C(=O)O)C1; Isobutyloxycarbonyl = CC(C)COC(=O)*; X4 = CCCCC(N[*:1])C(=O)C(=O)[*:2]; Hyp = O=C(O)[C@@H]1C[C@@H](O)CN1; X2 = CCCC(N[*:1])C(=O)C(=O)[*:2]; Tic = O=C(O)[CH]1Cc2ccccc2CN1; CH2CO2tBu = CC(C)(C)OC(=O)C*; Chg = N[CH](C(=O)O)C1CCCCC1; Phg = N[CH](C(=O)O)c1ccccc1; Tle = CC(C)(C)[C@H](N)C(=O)O; X60 = CC(CC(=O)*)c1ccccc1; ξChg = NC(C(=O)O)C1CCCCC1; ξPhg = NC(C(=O)O)c1ccccc1; Boc = CC(C)(C)OC(=O)*; ξNle = CCCCC(N)C(=O)O; OBn = c1ccc(CO*)cc1; Bn = c1ccc(C*)cc1; tBu = CC(C)(C)*
